The list shows a part of the results. At the low end of the ranking the order means little.
target: T1, GST-Rok (full length) (UniProt O34857); experiment: protein binding microarray; conditions: Rok is a gene silencer of Bacillus subtilis; high values mean tight binding; most listed sequences are background and not binding sites; double strand, one strand shown;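 also: rank score from −0.5 (least bound) to 0.5 (best bound)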
T1 sequence: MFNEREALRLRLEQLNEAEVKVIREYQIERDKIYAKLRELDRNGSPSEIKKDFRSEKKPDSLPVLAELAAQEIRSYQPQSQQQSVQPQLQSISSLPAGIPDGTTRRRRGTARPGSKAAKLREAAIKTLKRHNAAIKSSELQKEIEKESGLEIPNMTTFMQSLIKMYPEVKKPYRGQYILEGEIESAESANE

Sequence	binding signal [E-score]
GCTGACCC	-0.308
ACTTTACG	0.189
CTAAGGTC	-0.0306
CGGTGCTC	-0.237
ACTTGCAA	0.0887
GAACATGA	-0.0305
ATCGATAC	0.213
AATAGACT	0.0828
TAGTGAAA	0.156
ATTGCTGA	-0.177
AGGGTCAT	0.0363
ACCTATTA	0.232
GTTGCACA	-0.0321
ATGGGGCA	-0.154
AACCACTG	-0.154
CTGGAGCA	0.0178
CATTTTCG	0.108
AGTGTGCG	-0.0954
CTTAGGGC	-0.166
GACGGGGC	-0.305
CAGAGTGC	-0.14
GAAGTCTA	-0.0217
TAACGATA	0.206
AGACTGGC	-0.0698
CAGGCCGC	-0.316

Sequence	binding signal [E-score]
AGACTGAC	-0.144
TCGCTTCA	-0.0937
GAGGTTAC	-0.00918
CCAACCAG	-0.171
CGTTGGCA	-0.111
AATGGAAC	0.0464
AACGGTAC	0.236
GAACTGCA	-0.0807
CCATTTAA	0.00324
ATCTCTAG	-0.00242
AGTATCAC	0.104
ACAAGTGC	0.0808
AATTCCAC	0.13
CCTCGTGC	-0.483
ACTTCACG	-0.199
CGCCTAGA	-0.0948
ATCAAAAG	0.0689
GGGTGTAC	-0.133
TACCGATA	0.291
ATGTATTA	0.247
AGCCAGCA	-0.138
GTAGCGGA	-0.0485
CCAGTACA	0.162
CTGGTGGC	-0.272
CGCAGCAC	-0.163

Sequence	binding signal [E-score]
AAGCCGCC	-0.367
CTATGTAC	0.186
AGCTTACT	0.109
ATGGTGTC	-0.138
AAGTATTA	0.284
GAACTGTA	0.151
ACGAGACT	-0.0645
ACGGCAAA	0.00569
CCGTATAC	0.117
CCTTCGAG	-0.21
AATTCGCG	0.238
CCTTTAAA	-0.211
CCCTTGCA	-0.306
ATCGCTAC	0.032
CCCCTAGA	-0.202
CCTGGTAA	-0.0716
ATTCGAAA	0.159
CACGTTAG	-0.0148
GCTTTGCA	-0.149
CCTGATTA	0.078
GCGATTGA	-0.187
CGCGAACC	-0.158
ACACCAGG	-0.249
AAATATCC	0.127
GAGCGACA	-0.158

Sequence	binding signal [E-score]
GTCACCAC	-0.146
AGAGGCCG	-0.274
ACGCCTGC	-0.26
CTAAATTA	0.252
CCGTGATA	0.0672
AGTTGATG	0.0463
CCCCCCAA	-0.272
ACCAGTGA	0.0485
AGAGAACC	-0.0869
ATGAAAGA	0.0746
CTCGGCTA	-0.16
ACCAAGTA	0.237
AGGTTACG	-0.0671
AATGTTAA	0.293
CTCGTAGC	0.000163
TACCGAGA	0.161
CTTGAAGC	-0.271
CAGAAAGG	-0.206
CTGCAGAC	0.0497
AGCGCGAC	0.116
GCCACTCC	-0.293
CTGCTCGC	-0.18
ATCTACCG	0.409
CTACATTA	0.355
CGTCCCTA	-0.192

Sequence	binding signal [E-score]
AATCTTAG	0.15
AAATCCTA	0.231
AGCTGGAT	0.00784
CCCGAGGG	-0.384
GACCCAGA	-0.174
CGCACGTA	-0.0812
CTACAAAA	0.0496
ACGAATGA	0.137
AATATCCT	0.102
ATCTTTCC	-0.0503
GCATGTCC	-0.0171
AGCTACAG	0.222
ACCGCGGC	-0.192
CTACGTGC	-0.144
CTGTAAAA	0.0495
CCTTTGTC	-0.322
AGCTGAGG	-0.175
CCCTTTCC	-0.231
CTAAATTC	0.251
CGCGGGGA	-0.238
GAGCCTAA	-0.0202
AACGCAAC	0.15
CCAGATCC	-0.257
ACTAGTGG	0.00757
AGGTACCA	0.242

Sequence	binding signal [E-score]
GTCAACAC	-0.0503
GTGAAGCA	-0.11
AAGAGACA	-0.131
AGGATATG	0.0123
ACCCCCAA	-0.46
CGAATATC	0.112
AGCAAGCC	-0.0687
CCTTCGCG	-0.21
ACAAGAAT	-0.0153
AACCACAG	-0.226
ATGCTTGA	0.185
CAAAGCGA	-0.0582
CGGTCCGC	-0.31
ATTTCTCC	0.115
ATGACAAC	0.107
ACAATAAA	0.114
GTGAATTA	0.252
GAACTACC	0.338
CGACCTAG	0.171
ACGTGAAA	0.0502
ATCAGCGA	-0.128
GAGGTCGA	-0.0813
CCTTATAG	-0.0511
AGTCCTGG	-0.151
CAGCTACG	-0.0934

Sequence	binding signal [E-score]
CCAACGCC	-0.245
ATGGAGTA	0.126
GGGGGCAC	-0.426
CACCACTC	-0.201
CCCATACC	-0.34
CATCAAAA	-0.0296
ACCGTCAC	-0.0834
ACTGACTA	0.187
ACACCCTC	-0.18
CCACTTCA	0.0146
AATAGACC	0.0588
GAGATTGC	-0.0917
CTACTGGA	0.229
CCGCAAGG	-0.381
CGGAGAAA	-0.0855
CAGAACCG	-0.0752
CCTTATAA	-0.0304
CACCTTGA	-0.15
CAGGTCAA	-0.139
GTGACCGA	0.0907
CAATAACG	0.0291
CTCCAGGA	-0.116
TAGAGTAA	0.235
GCAGTTAC	0.104
CACCCGTG	-0.184

Sequence	binding signal [E-score]
GACAGTCC	-0.338
ATACACAT	0.303
AGCGCCAA	-0.156
CGAGGCTC	-0.281
AGATTCGA	0.137
CCTCACAG	-0.0675
CTCTGAAC	-0.103
ATGCCGCA	-0.0383
ATGGTCGG	0.102
GGATCGAC	-0.243
CACTATAA	0.303
GGCCACGA	-0.344
CTTTGAGA	-0.257
ATTCTAGG	0.143
ATCCTGAA	-0.000652
CGAATGAA	0.0515
GTGGTGTA	0.209
ACGCGTAT	0.221
CTTTGAGC	-0.133
AATACGCC	-0.109
AGGGTGAA	-0.17
GGGTTTGA	-0.178
GGGTACGA	-0.0749
ATTGCGAG	0.0221
GAGTCTCA	-0.171

Sequence	binding signal [E-score]
AGTTCGAC	0.0896
ATACCATA	0.286
ATGACATG	-0.00542
CCGGCTGC	-0.336
GGGCCAGA	-0.378
AGCGATAA	0.03
GCTACTTA	0.251
CCGACGAA	-0.0484
AGCTTGCC	-0.259
AAAGTGTG	-0.166
AGCAACCC	-0.196
CATCGCTC	-0.299
GCACAGAC	-0.101
AGTTCCAT	0.0525
ACCCCCCC	-0.361
ATATCGGA	0.136
AGCTAATG	0.112
ATGCGGAC	0.00024
GACCATTA	0.108
AACCCAAT	0.0726
ATGCACAC	-0.0398
ACTACCAC	0.347
ATCTCAGA	0.101
ACACTTAA	-0.00518
CTAGTCCC	-0.11

Sequence	binding signal [E-score]
TCTTAAAA	0.053
TGCTCTAA	-0.0409
CTCTGTCC	-0.198
GTCTACGA	-0.0706
CATTTGGC	-0.00447
ATAGTGTA	0.322
CATCTTAA	0.196
ACCTGCAG	0.0101
TTACTGAA	0.255
CCGGGTCA	-0.234
AGATTAGG	0.0873
AGCGTCCC	-0.278
AGCGCCTC	-0.268
TACATAAA	0.313
AGCGTTAC	0.0864
AATGGTAA	0.269
CCCGCTTC	-0.142
CTAACCTC	-0.188
ATCGCGAG	-0.0466
AGCTATAG	0.283
AACCAGGC	-0.285
TGATTAAA	-0.0452
CTGAGGCC	-0.255
GAGTCACC	-0.287
AACCATCA	0.0264

Sequence	binding signal [E-score]
CGATATCG	0.243
ACTACGGG	0.00457
AAACGATC	0.0216
CCTTCAAC	0.0335
AAGCGACC	-0.223
AGATCCAC	-0.0578
CCACGGGG	-0.307
GGACAAAA	-0.154
AGGAGGAT	-0.148
CTCAATGC	-0.156
CAGAAATG	0.116
CTCTAGTA	0.119
AGGAGCAC	-0.361
AAACGGAC	-0.0109
ACCCTGCG	-0.29
CCCTTATA	-0.188
CCAAAGCC	-0.341
CCGTTGCA	0.0135
CTGTCATA	0.00125
AACCTCCC	-0.341
GTCAACTA	0.0259
AGGCGAAG	-0.126
CTGAGTTC	-0.0518
ACGGAAGA	0.00608
AACGTATA	0.246

Sequence	binding signal [E-score]
ACCCAGAA	-0.0748
CGCTAAGC	-0.208
CAGCGCGG	-0.234
GACGGCTA	-0.342
AGAACTCT	0.0641
AAGGCAAT	-0.0531
TGACTACA	0.197
CTTCAATC	-0.195
AGCAATGC	0.107
ACGGGGGG	-0.314
ATCAACCC	-0.0952
CAAGACGG	-0.114
CTAGTACC	0.202
AGCACGAC	0.0109
AATTACTG	0.191
ATTAACCC	0.0787
AATAAAAG	0.0237
TAAAAAGA	0.0249
CATTCGAA	0.241
AATAAGTA	0.249
CCACCAAC	-0.138
CCCGTGCG	-0.367
ACCCCCTG	-0.219
GAGCGCCA	-0.357
GTCCCGTA	-0.00974

Sequence	binding signal [E-score]
AGGGGGAG	-0.278
ATGATTCC	-0.107
GGCATGAA	-0.0167
AAAATAGC	0.179
AATTCACG	0.177
CGGAATAC	0.0622
AATAAATT	0.295
GCTGAACC	-0.131
GAGAAAAC	-0.00588
AACCGCAC	-0.0995
ATGCCGGC	-0.302
CCAGACTC	-0.136
GATAAACC	-0.00338
CGCCAGTC	-0.237
ATCTGAAG	-0.0856
CAGTCTAC	0.147
CCAGAGCG	-0.277
GCGAACCA	-0.268
CAGGCCGA	-0.26
GCAACAGA	-0.00447
GCTGATTA	-0.127
ACTTGCCT	0.0161
GCTAAAGA	-0.0511
AGCCATTG	-0.119
ATGCAGGC	0.0328

Sequence	binding signal [E-score]
CCAATCTA	0.283
ACCCGGCT	-0.0892
CGCACAAG	-0.123
CCTCCTCC	-0.368
AAATGACG	-0.0296
AACTTCTC	0.0759
ATATCTCG	0.193
AATTTACG	0.292
CTCTCCAC	-0.204
ACAACTTA	0.23
TGAAACAA	-0.052
CGAGGATA	-0.0453
CAGTATGC	-0.0921
CTGTACTC	-0.00698
TTCCACAA	-0.0794
AAAGCCTT	-0.296
AAAATGCC	0.144
CCATAAGA	0.0104
GATTACGA	0.138
